Assay results published in the supplement of paper PMC10126150.
Sequences with one replicate were seen in a single cluster, so their values are uncertain.

tested on: ATP; experiment: switch fluorescence ratio, 500 uM ATP over buffer (Cy3 cluster intensity, sum of 5 cycles each) (fold (ratio)); higher = stronger signal-on switching upon ATP binding; sequences stand for … in TCGTCGGCAGCGTCAGATGTGTATAAGAGACAGTTTTTTTTTTTTTTTTTTTTTTTTT…TC; conditions: aptamer strand: ATP DNA aptamer (quencher-CACCTGGGGGAGTATTGCGGAGGAAGG + anchor), 100 nM annealed; ATP concentration: 500 uM; one replicate
How it was run: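 Clusters with intensities outside 100-1000 RFU were excluded. The remaining Cy3-labelled switching-strand clusters on a modified Illumina MiSeq flow-cell had been annealed to 100 nM quencher-labelled ATP aptamer and imaged in selection buffer, then after 15 min with 500 uM ATP at 22 °C, for five cycles separated by NaOH stripping and re-annealing. The fluorescence ratio, averaged per switch-domain sequence, is each cluster's summed target-cycle Cy3 intensity over its summed buffer-cycle Cy3 intensity.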
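Further: ATP exposure 15 min at 22 °C before imaging.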

Row | Sequence | switch fluorescence ratio
1 | ATTGGCGCAG | 0.995
2 | ATTGGCGCCC | 1.06
3 | ATTGGGAGT | 1.01
4 | ATTGGGGACG | 1.02
5 | ATTGGTAGAA | 1.01
6 | ATTGGTGCCA | 0.981
7 | ATTGGTGGTC | 1.02
8 | ATTGGTGTCA | 1
9 | ATTGTAATTC | 1.23
10 | ATTGTAGTTC | 0.978
11 | ATTGTCACTA | 0.968
12 | ATTGTCTTAA | 0.934
13 | ATTGTGCATG | 0.978
14 | ATTGTGGTCT | 1.03
15 | ATTTAAGATA | 1.01
16 | ATTTACCTTT | 1.06
17 | ATTTAGGCGA | 1
18 | ATTTAGGTCG | 0.952
19 | ATTTAGTGTG | 0.986
20 | ATTTATTACG | 0.975
21 | ATTTATTGT | 1.02
22 | ATTTATTGTT | 0.997
23 | ATTTCAGATC | 0.955
24 | ATTTCCCCCC | 1.16
25 | ATTTCCGAAA | 1.1
26 | ATTTCGATAA | 0.977

Row | Sequence | switch fluorescence ratio
27 | ATTTCGTACG | 1
28 | ATTTCTCCTT | 1.04
29 | ATTTCTGACA | 1
30 | ATTTCTGGTT | 0.944
31 | ATTTGAGAAT | 1.03
32 | ATTTGATAGG | 0.998
33 | ATTTGATGTG | 0.964
34 | ATTTGCAACG | 1.03
35 | ATTTGGTCCA | 0.994
36 | ATTTGTAACG | 0.997
37 | ATTTGTCAGT | 1.01
38 | ATTTGTCTCC | 1.01
39 | ATTTGTGAAT | 0.985
40 | ATTTGTTGCC | 0.982
41 | ATTTGTTGGC | 1.04
42 | ATTTGTTTGA | 0.945
43 | ATTTTAATA | 1.01
44 | ATTTTACCGA | 1.05
45 | ATTTTAGCGA | 1.01
46 | ATTTTCCCCG | 1.14
47 | ATTTTCGTAG | 0.941
48 | ATTTTCTCAG | 0.968
49 | ATTTTCTCGC | 1.08
50 | ATTTTGAGAT | 0.971
51 | ATTTTGATT | 0.994
52 | ATTTTGATTC | 1.02

Row | Sequence | switch fluorescence ratio
53 | ATTTTGTGA | 1.01
54 | ATTTTTCCTT | 1.01
55 | CAAAAACAG | 1.05
56 | CAAAAAGATC | 1.01
57 | CAAAAATAAA | 0.974
58 | CAAAAATTGT | 1.04
59 | CAAAAGAAC | 1.12
60 | CAAAATGGGG | 0.95
61 | CAAACAGTGT | 0.987
62 | CAAACGAGAA | 1.08
63 | CAAACTATTC | 0.96
64 | CAAACTCGAA | 0.995
65 | CAAAGATCAC | 1.06
66 | CAAAGCGTGG | 0.987
67 | CAAAGCTCGT | 0.974
68 | CAAAGGATC | 1.01
69 | CAAAGGGCGC | 0.936
70 | CAAAGTACGG | 1.16
71 | CAAAGTTTTG | 1.02
72 | CAAATAAAG | 1.03
73 | CAAATATGG | 1.01
74 | CAAATATTGA | 0.999
75 | CAAATCTCGG | 0.984
76 | CAAATTATAT | 1.02
77 | CAAATTTTA | 0.997
78 | CAACAAAGGT | 1.01

Row | Sequence | switch fluorescence ratio
79 | CAACAGAAGT | 1.01
80 | CAACAGTAGG | 0.995
81 | CAACAGTCCT | 1.06
82 | CAACAGTTAC | 1.18
83 | CAACATGTCT | 0.968
84 | CAACCAACGC | 1.44
85 | CAACCACACG | 1.39
86 | CAACCTAAGC | 0.991
87 | CAACCTCTTG | 1.03
88 | CAACGAAGGT | 1.01
89 | CAACGATCTT | 0.996
90 | CAACGCCTTA | 1
91 | CAACGGGTAG | 0.992
92 | CAACGTATCA | 1.1
93 | CAACTATCCA | 1.03
94 | CAACTCATA | 1.04
95 | CAACTGTCGA | 1.07
96 | CAACTTCAAT | 1.03
97 | CAACTTCCTC | 2.88
98 | CAACTTTTAT | 1.03
99 | CAAGACCCCA | 0.995
100 | CAAGACGACT | 1.08
101 | CAAGAGGCGG | 0.914
102 | CAAGATTACG | 1.1
103 | CAAGCAGTGT | 1.02
104 | CAAGCCCCGG | 1.1

Row | Sequence | switch fluorescence ratio
105 | CAAGCGGACG | 1.04
106 | CAAGCGGGAT | 1.04
107 | CAAGCGGGT | 0.991
108 | CAAGCGTACG | 1.03
109 | CAAGCTCGTC | 1.03
110 | CAAGCTGGGC | 0.952
111 | CAAGGATGAC | 1.05
112 | CAAGGCGGTG | 1.01
113 | CAAGGCTC | 0.974
114 | CAAGGGAGTA | 1.01
115 | CAAGGGCCGT | 0.996
116 | CAAGGGTCTA | 1.03
117 | CAAGGTAGTG | 0.981
118 | CAAGGTATTT | 0.963
119 | CAAGGTTCGA | 1.02
120 | CAAGTAAT | 1.57
121 | CAAGTATGCT | 0.975
122 | CAAGTATGTT | 0.982
123 | CAAGTATTAT | 0.987
124 | CAAGTCGACG | 0.978
125 | CAAGTCTCGA | 1.01
126 | CAAGTGAGGT | 1.02
127 | CAAGTGGCGC | 0.95
128 | CAAGTTCGCA | 1.09
129 | CAAGTTGTCA | 1.03
130 | CAATACACTG | 1.18

Row | Sequence | switch fluorescence ratio
131 | CAATACATTA | 1.08
132 | CAATAGAA | 0.983
133 | CAATAGAGAT | 1.08
134 | CAATAGGCCT | 0.998
135 | CAATAGGTAA | 0.975
136 | CAATATAATA | 0.998
137 | CAATATAGTT | 0.955
138 | CAATATCTCG | 1.09
139 | CAATATGGTC | 1.05
140 | CAATCACTTG | 1.06
141 | CAATCATCAG | 0.997
142 | CAATCATCGT | 1.01
143 | CAATCATGAG | 0.991
144 | CAATCCCTCG | 1.03
145 | CAATCGCATT | 1.86
146 | CAATCTACGA | 1.05
147 | CAATCTAGCT | 0.94
148 | CAATCTGTTT | 1.02
149 | CAATCTTTCA | 1.04
150 | CAATGAAGAG | 1.02
151 | CAATGAGGTT | 1.01
152 | CAATGAGTGG | 0.994
153 | CAATGATAGA | 0.955
154 | CAATGATCTG | 0.982
155 | CAATGCGC | 0.988
156 | CAATGCGGGT | 0.967

Row | Sequence | switch fluorescence ratio
157 | CAATGGACTA | 0.977
158 | CAATGTCTTG | 1.02
159 | CAATTATCAC | 1.03
160 | CAATTCAGGT | 1.02
161 | CAATTCCATC | 1.01
162 | CAATTCCGCT | 1.38
163 | CAATTGCCTG | 0.981
164 | CAATTGCTTT | 1.01
165 | CAATTGGTGA | 1.01
166 | CAATTGTCGA | 1.03
167 | CAATTTGGGT | 1.02
168 | CACAAGACAC | 1.15
169 | CACAAGTATG | 1.01
170 | CACACGGTCC | 1.07
171 | CACACTATTA | 1.05
172 | CACACTCTGG | 1.01
173 | CACACTTATT | 1.04
174 | CACAGAAATA | 1.04
175 | CACAGCAAGG | 1.56
176 | CACAGGTATC | 1.05
177 | CACAGGTGTG | 1.48
178 | CACATACTGA | 1.43
179 | CACATGCCGA | 1.01
180 | CACCATCAAA | 1
181 | CACCCAACCG | 1.15
182 | CACCCGCCGT | 1.06

Row | Sequence | switch fluorescence ratio
183 | CACCCGGCTC | 1.09
184 | CACCCGGTGG | 1.12
185 | CACCGAAGGA | 1.02
186 | CACCGGATTA | 1.15
187 | CACCGGGTG | 4.68
188 | CACCGGTTAT | 1.06
189 | CACCGTAGCC | 1.52
190 | CACCTCCAGA | 1.06
191 | CACCTTACTG | 1.27
192 | CACGACACAA | 1.55
193 | CACGAGCTCT | 1.04
194 | CACGAGGATA | 0.989
195 | CACGAGGATC | 1.04
196 | CACGATACTA | 1.44
197 | CACGATAG | 1.03
198 | CACGATGAGG | 1.03
199 | CACGATTAGA | 1.06
200 | CACGCCTTTA | 1.01
201 | CACGCGCGGA | 1
